Results published in paper PMC7819943, “Rice protein-binding microarrays: a tool to detect cis-acting elements near promoter regions in rice”.
This is one part of the list.

These sequences were tested against T1, OsWOX13 (Oryza sativa, UniProt Q5QMM3 1-267) (assay: protein-binding microarray (RPBM); PBS, 2% BSA, 51.3 ng/ul salmon testes DNA, 50 uM zinc acetate, 200 nM TF, 25 C, 1 h; high values mean tight binding). Settings: protein: recombinant; tags: N-terminal polyhistidine and DsRed monomer fusion (pET32a); label: CyDye5-dUTP incorporated in the synthesized complementary strand; 3' TTTTT single-stranded linker to array surface; dsDNA, one strand shown.
T1 sequence: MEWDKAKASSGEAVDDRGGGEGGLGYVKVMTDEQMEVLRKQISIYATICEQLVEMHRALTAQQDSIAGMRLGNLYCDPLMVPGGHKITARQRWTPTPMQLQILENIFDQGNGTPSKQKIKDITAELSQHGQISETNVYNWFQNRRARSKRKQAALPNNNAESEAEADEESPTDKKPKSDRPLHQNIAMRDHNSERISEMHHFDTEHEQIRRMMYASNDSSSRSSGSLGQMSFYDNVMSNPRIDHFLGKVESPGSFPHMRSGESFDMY
Procedure, shortened: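 Transcription factors were each fused at the N-terminus to a polyhistidine tag plus DsRed and expressed in E. coli BL21-CodonPlus before Ni–NTA purification. Binding to a double-stranded custom Agilent array was carried out with 200 nM protein at 25 °C for 1 h in PBS, 2% BSA, salmon testes DNA and 50 µM zinc acetate. The binding signal is per-feature fluorescence intensity, in arbitrary units, on an Axon 4000B scanner.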
“TGGTTTAAATTTAGGTTTGGTGTGTGATCTGTACTACCCACGGAGTCACCTAGTGCAG” was tested, and the binding signal was 3860 fluorescence intensity (a.u.).
In the case of “TCACGATTGATTTTAGCAAAACGTTAAGCAAATTGCTTTACGGAGTCACCTAGTGCAG”, the binding signal is reported as 19800 fluorescence intensity (a.u.).
In the case of “CATAATTTACATAATATTCCAACATATATCTTCATTATTTCGGAGTCACCTAGTGCAG”, the binding signal is reported as 5730 fluorescence intensity (a.u.).
For “AGAGTTATTTATAATTTATATTCCCAATATTTGACTTAAACGGAGTCACCTAGTGCAG”, the binding signal was 3200 fluorescence intensity (a.u.).
“TCAAAGTTGTAGACAATCACACGTGTGATGACTTGCGACACGGAGTCACCTAGTGCAG” was tested, and the binding signal was 4040 fluorescence intensity (a.u.).
“ATAATTAGATTAAAATAGATTTTACCCGTTGCAATGCACGCGGAGTCACCTAGTGCAG” was tested, and the binding signal was 56200 fluorescence intensity (a.u.).
With “CATGGCGGGGAGATTAATTGAGCATCATTTGTAAATTGAGCGGAGTCACCTAGTGCAG” the binding signal was 7480 fluorescence intensity (a.u.).
In the case of “ATCTATAATTTATTTTGTTATTAATCTATATTTAATACTTCGGAGTCACCTAGTGCAG”, the binding signal is reported as 5690 fluorescence intensity (a.u.).
“TTAAATGGTGGAGAGTTGTGATTGGTTGGGAATGTGATGTCGGAGTCACCTAGTGCAG” was tested, and the binding signal was 10400 fluorescence intensity (a.u.).
With “ATAAATAAAATTAGGCCATATTTGCACTGAAATGTCTGCCCGGAGTCACCTAGTGCAG” the binding signal was 3350 fluorescence intensity (a.u.).
For “CTATGGTTCAATCAAACGGTCATTCCTGTGATTTTCCTTCCGGAGTCACCTAGTGCAG”, the binding signal was 5790 fluorescence intensity (a.u.).
For “TTTTAGATTGCTAAGAACACATATATAAAAGATTTATTCACGGAGTCACCTAGTGCAG”, the binding signal was 3720 fluorescence intensity (a.u.).
For “AGCATCTTCTGTACTAATCAATTATAAACTTACCCTAGCTCGGAGTCACCTAGTGCAG”, the binding signal was 6440 fluorescence intensity (a.u.).
“TCTAGTATTGGTAGATTGGTACCACCAGTCTACTGCCAGTCGGAGTCACCTAGTGCAG” was tested, and the binding signal was 3610 fluorescence intensity (a.u.).
“AAAGAAACAAACAGAATAATTAAATTTTACATGAAGCACACGGAGTCACCTAGTGCAG” was tested, and the binding signal was 8480 fluorescence intensity (a.u.).
“CGAAAATCATTAATACATTGACTAATATAGCACTATAGCACGGAGTCACCTAGTGCAG” was tested, and the binding signal was 9780 fluorescence intensity (a.u.).
In the case of “CTCCAGATTGTCTGATGGACTACCAGCCTACCACTAGCTACGGAGTCACCTAGTGCAG”, the binding signal is reported as 6310 fluorescence intensity (a.u.).
“GTCATGTGAAATTTATAATTTAAAATATTATAGTTTTACACGGAGTCACCTAGTGCAG” was tested, and the binding signal was 6830 fluorescence intensity (a.u.).
For “GTGGATGTGATCCGCATGATTGATGTCATCATGAATATATCGGAGTCACCTAGTGCAG”, the binding signal was 20400 fluorescence intensity (a.u.).
“GTTCTGATTTCTCAAGGTTTACCAACCTGCCATCTCCCATCGGAGTCACCTAGTGCAG” was tested, and the binding signal was 4220 fluorescence intensity (a.u.).
In the case of “TTGTTTCATCAGTGACTGATCCTTTGTCTTGTTCATTTTGCGGAGTCACCTAGTGCAG”, the binding signal is reported as 3560 fluorescence intensity (a.u.).
“GGATTATGTTTACAATTTTCAAATAAATTAGTGTTAAACACGGAGTCACCTAGTGCAG” was tested, and the binding signal was 4400 fluorescence intensity (a.u.).
In the case of “GTGATGATTGATCAGTTGAAAATTAATGAGCATGCAAATGCGGAGTCACCTAGTGCAG”, the binding signal is reported as 29000 fluorescence intensity (a.u.).
“TCTCTTGCCACCTCCATCAATCAATTCCTCTCGCGCCACCCGGAGTCACCTAGTGCAG” was tested, and the binding signal was 10600 fluorescence intensity (a.u.).
With “TTCCTAATTTAAATGGTTGCATATATCCGGTTGGATGTAGCGGAGTCACCTAGTGCAG” the binding signal was 22900 fluorescence intensity (a.u.).
“TTTAATAGAACAAAAGTAACTGTTGCATTCTAGTTGAAGTCGGAGTCACCTAGTGCAG” was tested, and the binding signal was 5310 fluorescence intensity (a.u.).
For “CTGATTATTTCCCAAGATAGAAAGAAATGTGTATTTTGGACGGAGTCACCTAGTGCAG”, the binding signal was 7860 fluorescence intensity (a.u.).
For “ATCAATGTGATTTGAAGTATGATAGTAAAGTCACAATTCACGGAGTCACCTAGTGCAG”, the binding signal was 9150 fluorescence intensity (a.u.).
With “CAGATTGTTTGATTTAAATATGAGCAACAAGGCGTCGACCCGGAGTCACCTAGTGCAG” the binding signal was 32200 fluorescence intensity (a.u.).
With “AGGATTGAAGCGAGATGGATGAACTGCACGACGAAGAGCGCGGAGTCACCTAGTGCAG” the binding signal was 8260 fluorescence intensity (a.u.).
With “AAAAGTAATTTATTATCTTAAATAGATAGAAGATATAAAACGGAGTCACCTAGTGCAG” the binding signal was 5360 fluorescence intensity (a.u.).
In the case of “ATATACTAAGTTACATTAATTTGTTATGTGCTAGTTGATACGGAGTCACCTAGTGCAG”, the binding signal is reported as 3610 fluorescence intensity (a.u.).
For “CATAGATTACGTGTAAATTACAATGCGAATCTTTTAAACCCGGAGTCACCTAGTGCAG”, the binding signal was 19700 fluorescence intensity (a.u.).
With “CTAATCAAATAGGTTGATTTTCTTCCAAATCTCAGATACCCGGAGTCACCTAGTGCAG” the binding signal was 11500 fluorescence intensity (a.u.).
In the case of “TTATGATTACCATTTTAGTTTAACTATTTAAGTTTCCCAGCGGAGTCACCTAGTGCAG”, the binding signal is reported as 52000 fluorescence intensity (a.u.).
In the case of “CGATAGGTCAATCAAGCCAATTAACATGTCAAAAGACCATCGGAGTCACCTAGTGCAG”, the binding signal is reported as 30800 fluorescence intensity (a.u.).
“TCATTAATCCTGATTAGGTTTAGTGATACTGATGCACATACGGAGTCACCTAGTGCAG” was tested, and the binding signal was 6680 fluorescence intensity (a.u.).
In the case of “ATAAAATGTAAATTATGCTTAAAATGCTTTTAGTGATAAACGGAGTCACCTAGTGCAG”, the binding signal is reported as 4750 fluorescence intensity (a.u.).
With “TCTATGACTCGTTTATGATTACTTAATCTACCAGGCTCTTCGGAGTCACCTAGTGCAG” the binding signal was 4830 fluorescence intensity (a.u.).
“CCTCGATAATATATTGAATGTCATTCAATAATTCTGATAACGGAGTCACCTAGTGCAG” was tested, and the binding signal was 4370 fluorescence intensity (a.u.).
“ATAACCGTAATTACCGAGCGGTTGCGTGACTTGCTGTTGCCGGAGTCACCTAGTGCAG” was tested, and the binding signal was 14100 fluorescence intensity (a.u.).
With “AGCAATAGACTAGATTAATAGTAAACCACCTCAATAGTATCGGAGTCACCTAGTGCAG” the binding signal was 7680 fluorescence intensity (a.u.).
